Measured values reported in article PMC4336329 (PLoS ONE, 2015).
About 14,000 (4.5%) of roughly 310,000 compounds showed an effect of 50% or more. Effects have a minus sign here. This is one part of the list.

Target: human ether-à-go-go-related gene (hERG) potassium channel (human, UniProt Q12809)
Assay: primary screen, population patch clamp on CHO cells stably expressing hERG
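Further: peak tail current of the secondary pulse compared with the same well before compound.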

Chain of human ether-à-go-go-related gene (hERG) potassium channel (Q12809 whole entry, looked up): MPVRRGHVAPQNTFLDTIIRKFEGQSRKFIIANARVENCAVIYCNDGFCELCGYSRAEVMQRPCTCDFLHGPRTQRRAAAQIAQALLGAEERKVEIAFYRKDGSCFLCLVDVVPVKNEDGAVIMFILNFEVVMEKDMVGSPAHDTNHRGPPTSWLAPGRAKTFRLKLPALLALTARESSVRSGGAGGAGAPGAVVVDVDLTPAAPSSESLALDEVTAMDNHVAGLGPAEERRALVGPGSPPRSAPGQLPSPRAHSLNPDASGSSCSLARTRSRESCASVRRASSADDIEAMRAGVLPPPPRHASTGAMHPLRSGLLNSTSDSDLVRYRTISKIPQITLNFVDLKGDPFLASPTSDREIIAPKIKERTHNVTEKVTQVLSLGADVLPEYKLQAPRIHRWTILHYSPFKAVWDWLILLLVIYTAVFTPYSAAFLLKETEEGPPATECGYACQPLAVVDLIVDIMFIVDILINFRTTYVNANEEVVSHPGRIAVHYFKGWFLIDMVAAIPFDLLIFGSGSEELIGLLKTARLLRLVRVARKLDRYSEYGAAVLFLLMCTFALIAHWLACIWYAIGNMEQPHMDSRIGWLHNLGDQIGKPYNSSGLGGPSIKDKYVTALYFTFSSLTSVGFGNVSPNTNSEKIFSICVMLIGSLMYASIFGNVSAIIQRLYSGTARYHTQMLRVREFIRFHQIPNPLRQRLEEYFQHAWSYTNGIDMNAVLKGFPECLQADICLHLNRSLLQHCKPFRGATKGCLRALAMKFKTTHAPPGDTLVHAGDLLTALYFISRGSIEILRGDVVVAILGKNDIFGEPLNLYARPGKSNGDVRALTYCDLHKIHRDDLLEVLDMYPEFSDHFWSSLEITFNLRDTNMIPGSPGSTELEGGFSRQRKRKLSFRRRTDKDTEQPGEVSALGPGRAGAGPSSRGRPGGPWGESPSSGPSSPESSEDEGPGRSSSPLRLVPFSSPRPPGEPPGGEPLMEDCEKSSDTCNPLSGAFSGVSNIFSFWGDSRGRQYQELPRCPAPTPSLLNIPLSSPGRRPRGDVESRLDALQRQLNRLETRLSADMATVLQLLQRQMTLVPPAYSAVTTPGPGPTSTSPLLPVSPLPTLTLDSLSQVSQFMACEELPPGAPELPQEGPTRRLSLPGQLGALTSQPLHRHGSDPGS

Compound	hERG current change (%, negative = inhibition) at 10uM [%]
CCc1cc(=O)oc2c(C)c(OC(C)C(=O)NCC3CCC(C(=O)O)CC3)ccc12 (stereo not drawn)	21.2
CC(CCc1ccccc1)NC(=O)C(=O)NCCc1ccccc1 (stereo not drawn)	-0.47
COc1ccccc1CNc1ccc(CNc2ncn[nH]2)cc1	2.56
CCOC(=O)c1c(CSc2ccsc2)n(C)c2cc(Br)c(O)c(CN(C)C)c12.Cl	-84.2
COCCN=C1Sc2nc3ccc(C)cc3cc2CN1Cc1cccs1	-11.1
Br.CC(C)(C)C(=O)Cn1c(NCCCO)nc2ccccc21	-7.81
CCOC(=O)c1ccc(NC(=O)CN2C(=O)NC3(CCCCCC3)C2=O)cc1	-4.28
C=CCSc1nnc(NC(=O)CN2C(=O)NC3(CCCC3)C2=O)s1	9.29
COc1ccc(C2CC(c3ccccc3)=NN2C(=O)c2cccs2)cc1 (stereo not drawn)	-1.42
[Cl-].c1ccc(Cn2c[n+](Cc3ccccc3)cn2)cc1	5.26
CCN1CCN(CC(=O)Nc2cc3c(cc2C(C)=O)OCO3)CC1.O=C(O)C(=O)O	-8.04
CCN(CC)c1ccc(C(=O)NC(=S)Nc2cc(S(=O)(=O)N3CCOCC3)ccc2-n2cncn2)cc1	-7.1
Cc1noc(C)c1COc1ccccc1C(=O)Nc1cccc(S(=O)(=O)N(C)C)c1	-42.8
CNC(=O)c1cccnc1Nc1cccc(C(F)(F)F)c1	-18.4
COc1cc(NC(=O)c2cccc([N+](=O)[O-])c2C)ccc1NC(=O)c1ccco1	6.87
Cc1ccc2c(c1)c(C)c(C)n2CC(O)Cn1nnc2ccccc21 (stereo not drawn)	1.76
COc1cccc(CNC(=O)C2CCCN(S(=O)(=O)c3c(C)noc3/C=C/N(C)C)C2)c1 (stereo not drawn)	-18.1
Cc1ccc(C(=O)NC2CCN(Cc3ccccc3)CC2)cc1S(=O)(=O)N1CCOCC1	-30.2
CC(=O)Nc1c2c(nn1-c1ccc(C)cc1)CS(=O)(=O)C2	19.1
Cc1cccc(-n2c(SCC(=O)N3CC(=O)Nc4ccccc43)nc3ccccc3c2=O)c1	9.48
CCOc1ccc(-c2n[nH]c(=S)n2/N=C/c2cc3c(cc2[N+](=O)[O-])OCO3)cc1	10.9
Cc1nc(C)c(C(=O)NNS(=O)(=O)c2ccccc2)s1	8.26

Compound	hERG current change (%, negative = inhibition) at 10uM [%]
O=C(CSc1nc2ccccc2[nH]1)c1c[nH]c2ccccc12	11.5
O=C(Nc1ccc(C(F)(F)F)cc1)N1CCN(c2ccnc3cc(Cl)ccc23)CC1	-62.2
COc1ccccc1C(=O)NNC(=O)c1ccncc1	12.2
CC(C)OCCCNC(=O)c1cn(C)c2ccc(S(=O)(=O)N3CCCC3)cc2c1=O	7.24
CC(=O)c1ccc(OC(C)C)c(CC(C(N)=O)C(N)=O)c1	9.72
Cc1ccc2[nH]c(-c3ccccc3)c(CN3CCN(C)CC3)c(=O)c2c1	-9.94
Cc1ccc(N2CC(C(=O)Nc3nnc(SCC(=O)Nc4nc(C)cs4)s3)CC2=O)cc1 (stereo not drawn)	10.7
Cc1ccc(S(=O)(=O)N(C)C)cc1NC(=O)c1cc(-c2ccco2)nc2ccccc12	15.3
CSc1nc2ccccc2c(=O)n1N	6.17
CCCc1cc(C(=O)Nc2ccc(F)c(Cl)c2)no1	-5.83
Cc1ccc2cc(S(=O)(=O)NCCCC(=O)O)ccc2c1	7.37
C/C(=N\OCC(=O)Nn1c(=O)[nH]c2ccccc2c1=O)c1cccs1	-10.9
Cn1c(=O)oc2cc(S(=O)(=O)N3CCCC(C(=O)N4CCc5ccccc5C4)C3)ccc21 (stereo not drawn)	-24.9
COC(=O)c1cc(S(=O)(=O)NCCc2ccc(C)cc2)c[nH]1	-9.92
Cc1cccc(C)c1NC(=O)C(NC=O)c1ccccc1Cl (stereo not drawn)	0.855
Cc1ccc(-c2cc(C(=O)N3CCN(c4ccccc4O)CC3)c3ccccc3n2)o1	-70.9
Cc1cc(C(=O)OCC(=O)NC2CCS(=O)(=O)C2)c2ccccc2n1 (stereo not drawn)	-14.5
C#CCOCCOCCOCCNc1nc(N2CCN(C(=O)CCCCCCCCCCNC(=O)[C@@H](CCSC)n3cc(CCO)nn3)CC2)nc(N2CCN(C(=O)CCCCCCCCCCNC(=O)[C@H]([C@@H](C)CC)n3cc(CCCCCN)nn3)CC2)n1	-0.494
C[n+]1cc(C(=O)N2CCCCC2)ccc1/C=C/c1c[nH]c2ccccc12.[I-]	-3.97
CC1Cc2ccccc2N1C(=O)c1cnc2n(c1=O)CCS2 (stereo not drawn)	12.1
CCOC(=O)N1C2C=C(C)[C@@H]2[C@@H]2CC(=O)N21 (stereo partly drawn)	14
COc1ccccc1-n1cnc2cc(NCc3ccccn3)ccc21	-17.5

Compound	hERG current change (%, negative = inhibition) at 10uM [%]
CCOC(=O)N1CCC(N2CC34C=CC(O3)C(C(=O)Nc3ccc(C)cc3)C4C2=O)CC1 (stereo not drawn)	-0.268
CCSc1nnc(-c2ccccc2N=Cc2c(C)[nH]n(-c3ccccc3)c2=O)c(=O)[nH]1	-17.6
O=C(NCc1ccco1)c1cc(-c2cccc(Cl)c2)on1	-3.62
C=CCn1c2ccccc2c(=O)c2cc(C#Cc3cc(OC)cc(OC)c3)ccc21	10.4
Cc1cc(N/N=C/c2ccco2)c2ccccc2n1	16.6
CC1CCN(C(=O)C2CCN(c3nnc(-n4cccc4)s3)CC2)CC1	-12.1
Cc1cccc(OCC(=O)NNC(=O)c2cc3ccccc3oc2=O)c1	-9.32
COc1ccccc1Oc1ccccc1[N+](=O)[O-]	5.95
O=C(NCc1ccccn1)C1CCN(Cc2cccc(OCc3ccccc3)c2)CC1.O=C(O)C(=O)O	-35.7
CCn1c(=O)cc(SCC(=O)Nc2ccc(OC)c(OC)c2)c2ccccc21	-4.7
O=C(CN1CCOCC1)OCCCC1CCCCC1	6.58
O=C1C=C2C=C[C@H]3C[C@]2(O1)[C@@H]1CCCCN13	6.92
Nc1nnc(SCC(=O)NNC(=O)c2ccc(F)cc2)s1	-2.71
CCCCNC(=O)CCn1nc(-c2ccccc2)ccc1=O	-40
Cc1ccc(C)c(CN2CCSCC2)c1	17.3
Cc1nc(C)c(C(=O)OCC(=O)Nc2ccccc2)s1	-5.7
COc1ccc(-c2nnc(SCC(=O)OC3CCCCC3)o2)cc1OC	0.881
Cc1cccc(NC(=O)C[n+]2cccc(C)c2)c1.[Cl-]	-3.51
CC(Sc1ccccc1)C(=O)N1CCN(S(=O)(=O)c2ccccc2F)CC1 (stereo not drawn)	0.493
Cc1ccc(S(=O)(=O)N2CCN(S(=O)(=O)N(C)C)CC2)cc1	5.52
CC(=O)c1ccc(NC(=O)CCOc2cc(C)ccc2C)cc1	-8.08
CCOc1ccc(CCNC(=O)c2nccnc2C(=O)O)cc1OCC	20.7

Compound	hERG current change (%, negative = inhibition) at 10uM [%]
CN1CCc2cc3c(c4c2C1CC41CCC(=NO)CC1)OCO3 (stereo not drawn)	-7.57
CCCCc1nc(SCC(=O)Nc2cc(C)on2)n[nH]1	25.1
CCN(CC)S(=O)(=O)c1cccc(NN=c2c(=O)c3ccccc3c2=O)c1	13.8
CCOc1ccc(N(C(=O)Nc2ccccc2)C2=NCCC2)cc1	-3.82
COc1ccc2cnn(CCOc3ccccc3)c(=O)c2c1OC	-13.5
Cc1ccc2[nH]cc(CCNC(=O)C3CCCCC3)c2c1	8.88
O=C(CCCn1c(=O)[nH]c2cc(Cl)ccc2c1=O)NCCC1=CCCCC1	10.9
COc1ccc(-c2nc(SC(CC(=O)NCc3ccccc3)c3ccc(OC)c(OC)c3)n[nH]2)cc1 (stereo not drawn)	-0.421
COCc1c(C(=O)N2CCN(c3ncccn3)CC2)oc2ccccc12	-7.68
Cc1cccc(NC(=O)COc2ccccc2C(=O)NC(C)c2ccccc2)c1 (stereo not drawn)	-8.56
COc1cc([N+](=O)[O-])cc(/C=N/NC(=O)c2cc(-c3ccccc3)nc3ccccc23)c1O	6.01
COc1ccc(COc2cccc(C=O)c2)cc1	-6.86
CN(C(=O)c1coc(=O)c2ccccc12)c1ccc(F)cc1	4.81
O=[N+]([O-])c1ccc(NC2CCN(Cc3ccccc3)CC2)c2ccncc12	6.01
COc1ccc(NC(=O)N2CCC3(CC2)OCCO3)c(OC)c1	7.69
Cc1ccc(C2C=C(c3ccc4c(c3)OCO4)Nc3ncnn32)cc1 (stereo not drawn)	-12
Cc1ccc(S(=O)(=O)N2CCN(C(=O)c3cccc(F)c3)CC2)cc1	-9.7
NS(=O)(=O)c1ccc(CCNC(=O)CSc2nc3ccccc3c(=O)n2CCN2CCOCC2)cc1	41.4
Cc1c(C)c2ccc(OC(C)C(=O)N3CC[C@@]4(O)CCCC[C@H]4C3)cc2oc1=O (stereo partly drawn)	-11.2
CCS(=O)(=O)N1CCCC(C(=O)NCc2cccnc2)C1 (stereo not drawn)	1.43
[O-]/[N+](=C/c1ccco1)c1ccccc1	15.2
